Measurements taken from PMC12136788.
The other results are listed elsewhere or left out.

T1: UNK ZnF1-3 (human, UniProt Q9C0B0 31-174)
T1 sequence: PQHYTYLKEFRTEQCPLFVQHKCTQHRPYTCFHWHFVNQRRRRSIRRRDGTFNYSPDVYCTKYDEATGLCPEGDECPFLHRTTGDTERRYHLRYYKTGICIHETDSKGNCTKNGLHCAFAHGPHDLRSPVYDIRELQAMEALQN

B1: chr6:41757443:41757444:+_ENSG00000214736_ENST00000398881|hu_mus|hu_hu_hu_mus_False|78_108 (ssRNA)
RNA: GGGAGUUCUACAGUCCGACGAUCGAACUGUCUGCUGGCAACAUCUCAGCCGACACUGUGGACUCAAGGGGCAGUGGGGGGGGGUUCAGGCAAGGAGAGGGAGUCAACUUCAGCUGCCACUCAGGUAGGAUCUUGUGGUCACAGCAACAGAGGAUUGAGCAUCA
B2: chr19:29217640:29217641:+_ENSMUSG00000024785_ENSMUST00000064393|mus_mus|motif|central (ssRNA)
RNA: GGGAGUUCUACAGUCCGACGAUCCUUGGUUUCAACUUUAAACAUAACCUGGAAAAAGCUCUUCAGAUGCCGCAAAAAUUCGGUCGUGUAGGGUGAGAGUGGUCCCAGCAGGACUUUGGAAACGUCCUGCUGUCCAAGGGUCAUCAACAGAGGAUUGAGCAUCA
B3: chrX:50352303:50352304:+_ENSMUSG00000025630_ENSMUST00000026723|mus_hu|FALSE|FALSE (ssRNA)
RNA: GGGAGUUCUACAGUCCGACGAUCCAGCAUAAUGAUUAGGUAUGCAAAAUAAAUCAAGGUCAUAACCUGGUUCAUCAUCACUAAUCACGACGCCAGGGCUGCGGGUCGCCAUAACGGAGCCGGCCGGCGCGCGGGCUGACUGCUCAACAGAGGAUUGAGCAUCA
B4: chr5:162900210:162900211:+_ENSG00000072571_ENST00000358715|hu_mus|motif|central (ssRNA)
RNA: GGGAGUUCUACAGUCCGACGAUCUUGGAUGUAUUCUAAGAGUUUUUCUGUUUCACAUUUUUCAUCGAUCUUUUCUUUCUCGGUUGAAACAAGCUUUCCCUCCAGCUGGACUAUUUUUCCCUUAGACUCCGUGAGGUCCUUCUGCAACAGAGGAUUGAGCAUCA
B5: chr2:39006174:39006175:+_ENSG00000152147_ENST00000409566|hu_hu|motif|central (ssRNA)
RNA: GGGAGUUCUACAGUCCGACGAUCUCAUUCUUCUCACUGGCUGUCACUCGGACCUCUUUGUAAAUGUAAUCUUGCCAUUCGGAGGGGCCUUUCUUCAUCCAUUCACUCAUGAUUGCCACCUGGCUAAAUCAGUUAAAAAACUCCCAACAGAGGAUUGAGCAUCA
B6: chr3:179342097:179342098:+_ENSG00000136521_ENST00000259037|hu_hu|FALSE|FALSE (ssRNA)
RNA: GGGAGUUCUACAGUCCGACGAUCCUGGUGCUUAACAUUAUUAGACUUCUAUAACUUCCAUUUGUCAGGUAAAUAAAACACUAACCUUUCAAAGUUGCUACAAUUUUAGGAGUUCACAAAUUCCUAUUUCUCCAGUUUUUAUUACAACAGAGGAUUGAGCAUCA
B7: chr5:10264876:10264877:+_ENSG00000150753_ENST00000503026|hu_hu|motif|central (ssRNA)
RNA: GGGAGUUCUACAGUCCGACGAUCAUAACUGUAGAUGCAUCACGAGACAUCCAUUUACUUAAUCACAGAAGUGGAUCUUGCGGCAUAGUUUUCUCAAUGUCUUCAUUCUUCAGAUUCUCCAGGCUUACGAAUGUCAUCAAUCUUCAACAGAGGAUUGAGCAUCA
B8: 130276092_130276212_139_5pUTR_ENSMUSG00000027303_ENSMUST00000028769|mouse|control|control (ssRNA)
RNA: GGGAGUUCUACAGUCCGACGAUCCCCCUCAGGGCCGCCGCCCGGUCCGCUGCUCGAAGCCCCGCGGCGGCGGCGGCGGCCUCGCCUCCAUGGCGAGGAGAAGCGGCAGAGAGAGGACUGGGCUGGAGGCUGCGAUGGCGGCGUCAACAGAGGAUUGAGCAUCA
B9: chr4:76721835:76721836:+_ENSG00000138768_ENST00000264904|hu_mus|hu_hu_hu_mus_True|8_98 (ssRNA)
RNA: GGGAGUUCUACAGUCCGACGAUCGUUUGGCUGGGGUUCUGAGAUGCCUCUGGAAUAUAACUCAUGUUUGCUAAUAAAUCCUAGUUUCUCUAUGAAAUUCUCUUUGCCAAUCCUCUUCUCUAUUAGUGUUUUAGCUUUCUCUUUCAACAGAGGAUUGAGCAUCA
B10: chr18:52894491:52894492:-_ENSG00000196628_ENST00000354452|hu_mus|motif|central (ssRNA)
RNA: GGGAGUUCUACAGUCCGACGAUCCAAAAAAAAAAAUCCAUAUUUACAGUAAAAUCUUUCUUUUAAAAAAGUUAAUCAGUACGGUUUUUUUACAGGAGAAAAAAGUCUGAAACAAAUCAACAAAAGCUUACCAUAGUCACUAAACAACAGAGGAUUGAGCAUCA
B11: chr9:123603995:123603996:-_ENSMUSG00000025245_ENSMUST00000165754|mus_mus|motif|central (ssRNA)
RNA: GGGAGUUCUACAGUCCGACGAUCACAGAAUAAAGCAAUUACAAAUUUAGGAAAAUGUAAUAAUUAUCUAAAGCAAAAACGGUUGAGCCUAGAAUAACUCUAAAAUGUUAUUUUGAGGUCCAAAACUAUGUGUUAAGAACUUAGCAACAGAGGAUUGAGCAUCA
B12: chr1:65854986:65854987:+_ENSG00000116675_ENST00000371069|hu_hu|motif|central (ssRNA)
RNA: GGGAGUUCUACAGUCCGACGAUCGAGGAUGCUGGGAUUGACAUCUUUUGUGCAGUAAUGUUCCCAUGGUGGAGUUAAGUCGGUUACUUUGUCAUGGGGCUGUAGUUCUACAUCCAGUGUCACCUGAAAUAGCUGAGGAUAUUUCAACAGAGGAUUGAGCAUCA
B13: 40564312_40564750_764_CDS_ENSMUSG00000025757_ENSMUST00000077083|mouse|control|control (ssRNA)
RNA: GGGAGUUCUACAGUCCGACGAUCAUCUAAUGAGGGAAGAUCCUGCUUAUAAAUUCCAUAUGCCAGUGCAACUGCAGUGGUUUCAUUCAUCAGCCUCAGACAGUUUAGGCCUGCAACCUGGGCUGCGGCCAUCACGGAUCUUCUCAACAGAGGAUUGAGCAUCA
B14: 105762366_105762853_224_5pUTR_ENSMUSG00000000563_ENSMUST00000118209|mouse|control|control (ssRNA)
RNA: GGGAGUUCUACAGUCCGACGAUCAUUCUCGCGAGAAGUAGAGCGAAUUCCCUCGGAGAGGGGCGGUUGCGCAGAGGUACACCACGUGUGCGGUCCCUCCGGCGCCGAGUCAGGGUCUCUCGUCGAGUCUGGGUCUUAUAACUUCAACAGAGGAUUGAGCAUCA
B15: chrX:147030410:147030411:+_ENSG00000102081_ENST00000218200|hu_hu|motif|central (ssRNA)
RNA: GGGAGUUCUACAGUCCGACGAUCUUUCAUGCCCUGUGCCAUCUUGCCUACUAUUUGUCUUUGGCCUAACAAAGUUUUCGGAUAUGGAAUAAGAAUUACGGAAAUGGUAUAGGAAAUAUAACUUCAGAAUUAUGCAGUUUAGGGCAACAGAGGAUUGAGCAUCA
B16: chr14:66974463:66974464:+_ENSMUSG00000022044_ENSMUST00000074523|mus_hu|mus_mus_mus_hu_False|8_38 (ssRNA)
RNA: GGGAGUUCUACAGUCCGACGAUCUUGUAGGACGACUUAUUCAGGGGAUCGGCCAGGAAGCAGGAGCAGAACAAGGACACCAGCGGGAGCUCCUUCAUCUUCUCCUUGUAGGCAGCAAGGGUCAUGUUGGCUGGAAUUGGUGGCCAACAGAGGAUUGAGCAUCA
B17: 46244619_46244739_2945_3pUTR_ENSG00000189079_ENST00000334344|human|control|control (ssRNA)
RNA: GGGAGUUCUACAGUCCGACGAUCGGUGAAUGGCUGGUGCAUAAGUUUGACCUUGUUGAGCUGGCUGGCUUACAAUCACUACGCUUUGUUGGGUUGGCUGCUGUGGUUGUUGAAUAGGCUGCUGUACCACUGUAGAUGAAACUUCAACAGAGGAUUGAGCAUCA
B18: chr10:36854569:36854570:-_ENSMUSG00000069662_ENSMUST00000092584|mus_hu|FALSE|FALSE (ssRNA)
RNA: GGGAGUUCUACAGUCCGACGAUCAGAACCACAAUAAAAUUUACUCCUGAUGGCAUGCAAGAUCUUCCUAAAAAUUAACCUAAGACCUAGAAGUCUCAGUAUUAUUAGAACAUAAAAAAACACAACAAAUUUGUACAUUUUAUUCAACAGAGGAUUGAGCAUCA
B19: 72619163_72628128_782_3pUTR_ENSG00000166224_ENST00000373202|human|control|control (ssRNA)
RNA: GGGAGUUCUACAGUCCGACGAUCUAUGCUUUCUGUUCCCCCAGAAGUCACACAUCCACACGAAUCUGGUCCCCCAUUGAACAGGGAACAAGCUAUCCUCACGAUUUCUGCCUCUAUCUUGCGUAGUCCUGGGAAGAUAUCUGGCAACAGAGGAUUGAGCAUCA
B20: chr1:244855233:244855234:+_ENSG00000121644_ENST00000302550|hu_mus|hu_hu_hu_mus_True|28_48 (ssRNA)
RNA: GGGAGUUCUACAGUCCGACGAUCCAUCAGAUGGUAGGCGUUGCCCUUAUACUCUUUCCCCAGUUCUUCUACAAUUUUCUCUAUAUCAUCUUCUAGGAAGUCCGUACUCCCUAAAACAACAGCUUCUUUAAAUUUAAAUGUUUCCAACAGAGGAUUGAGCAUCA
B21: chr11:77378495:77378496:-_ENSG00000048649_ENST00000308488|hu_hu|motif|central (ssRNA)
RNA: GGGAGUUCUACAGUCCGACGAUCUGAAUACUCGUCUGUGCUUCGGCCCCGCUUUCGAACUGACCGCUUUGAUUCUUUAGCGGGCUCAUCAUCUUCAGAGUUCUUGGACAAAUAGCUCUCUUCACUCUCUGAGCUGGAAAGUCUCAACAGAGGAUUGAGCAUCA
B22: chr12:103220134:103220135:+_ENSMUSG00000041781_ENSMUST00000047357|mus_hu|FALSE|FALSE (ssRNA)
RNA: GGGAGUUCUACAGUCCGACGAUCGAAAGGGUAGUUAAUUUGAUAAUAGACGUCAUUUUUUUUGGUCCAGAAACAGCAAGCUAGAAGAGUUGAUAUCUUAGUCGUAUAUAUGAUGAAACACCAGGAAUUCUGAAGAGUUCUUUACAACAGAGGAUUGAGCAUCA

These binders were tested against T1, UNK ZnF1-3 (assay: nsRBNS (natural sequence RNA bind-n-seq); RBNS binding buffer (assumed for nsRBNS): 25 mM Tris pH 7.5, 150 mM KCl, 3 mM MgCl2, 0.01% Triton X-100, 500 ug/ml BSA, 20 U/ml SUPERase-In, 4 C; UNK is unkempt and MSI1 is Musashi-1; names of the RNAs are library labels; protein concentration not given here; high values mean tight binding).

| Binder | binding signal [enrichment R] |
| --- | --- |
| B1 | 1.98 |
| B2 | 1.08 |
| B3 | 0.952 |
| B4 | 0.266 |
| B5 | 0.801 |
| B6 | 0.572 |
| B7 | 0.802 |
| B8 | 0.429 |
| B9 | 0.567 |
| B10 | 1.13 |
| B11 | 0.627 |
| B12 | 1.41 |
| B13 | 0.732 |
| B14 | 0.752 |
| B15 | 1.54 |
| B16 | 2.11 |
| B17 | 0.678 |
| B18 | 1.42 |
| B19 | 0.897 |
| B20 | 1.29 |
| B21 | 0.442 |
| B22 | 1.84 |
